From PMC11403517
Like-named read-outs stand apart in the source and are kept apart here. No constants are given. Whether binding was seen depends on the method and setting. In cells and extracts the contact can be indirect. Some entries that bind do so weakly or less than the wild type. For some of these results: Sequences can lack the tags named with a protein.

Columns and labels:
[1] = target: HA-P300 (UniProt Q09472); assay: co-IP; HEK293T transfected 24 h, Igepal lysis buffer (150 mM NaCl, 50 mM Tris-HCl pH 8.0, 5 mM MgCl2, 0.8% Igepal CA-630); HA-P300 precipitated with anti-HA and ProtG beads, 1 h 4 °C; immunoblotting; RIG-I co-expressed in Figure 5D
[2] = target: HA-P300 (UniProt Q09472); assay: as above; remark: listed apart in the source
[3] = target: T1, GFP-IRF3 (UniProt Q14653); assay: co-IP; HEK293T transfected 24 h with GFP-IRF3 and RIG-I, Igepal lysis buffer; GFP-IRF3 precipitated with GFP-Trap beads, 1 h 4 °C; immunoblotting
T1 sequence: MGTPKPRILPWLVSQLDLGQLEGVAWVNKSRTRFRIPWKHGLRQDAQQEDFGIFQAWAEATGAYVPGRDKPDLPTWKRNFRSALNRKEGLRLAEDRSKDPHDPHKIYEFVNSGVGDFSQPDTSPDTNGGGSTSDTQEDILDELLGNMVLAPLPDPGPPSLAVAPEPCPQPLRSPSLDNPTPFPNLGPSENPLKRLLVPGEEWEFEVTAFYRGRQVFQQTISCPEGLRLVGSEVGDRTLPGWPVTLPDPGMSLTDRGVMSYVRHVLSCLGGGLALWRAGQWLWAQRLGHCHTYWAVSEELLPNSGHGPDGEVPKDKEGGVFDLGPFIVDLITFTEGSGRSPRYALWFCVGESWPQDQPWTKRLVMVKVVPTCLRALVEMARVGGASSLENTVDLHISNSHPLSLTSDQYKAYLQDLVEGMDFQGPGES

Molecule | binding [1] | binding [2] | binding [3]
FLAG-EBNA3A truncation mutant v (820-944) (from UniProt P12977 820-944) (domain or fragment) | no binding | – | –
FLAG-EBNA3A truncation mutant ii (1-240) (from UniProt P12977 1-240) (domain or fragment) | binds | – | –
FLAG-EBNA3A truncation mutant iv (1-826) (from UniProt P12977 1-826) (domain or fragment) | binds | – | –
FLAG-EBNA3A truncation mutant vi (280-819) (from UniProt P12977 280-819) (domain or fragment) | no binding | – | –
FLAG-EBNA3A truncation mutant iii (1-523) (from UniProt P12977 1-523) (domain or fragment) | binds | – | –
Epstein-Barr virus nuclear antigen 3A (EBNA3A), as expressed in the co-immunoprecipitations of Figures 4C and 5E (protein, UniProt P12977 1-944) MDKDRPGPPALDDNMEEEVPSTSVVQEQVSAGDWENVLIELSDSSSEKEAEDAHLEPAQKGTKRKRVDHDAGGSAPARPMLPPQPDLPGREAILRRFPLDLRTLLQAIGAAATRIDTRAIDQFFGSQISNTEMYIMYAMAIRQAIRDRRRNPASRRDQAKWRLQTLAAGWPMGYQAYSSWMYSYTDHQTTPTFVHLQATLGCTGGRRCHVTFSAGTFKLPRCTPGDRQWLYVQSSVGNIVQSCNPRYSIFFDYMAIHRSLTKIWEEVLTPDQRVSFMEFLGFLQRTDLSYIKSFVSDALGTTSIQTPWIDDNPSTETAQAWNAGFLRGRAYGIDLLRTEGEHVEGATGETREESEDTESDGDDEDLPCIVSRGGPKVKRPPIFIRRLHRLLLMRAGKRTEQGKEVLEKARGSTYGTPRPPVPKPRPEVPQSDETATSHGSAQVPEPPTIHLAAQGMAYPLHEQHGMAPCPVAQAPPTPLPPVSPGDQLPGVFSDGRVACAPVPAPAGPIVRPWEPSLTQAAGQAFAPVRPQHMPVEPVPVPTVALERPVYPKPVRPAPPKIAMQGPGETSGIRRARERWRPAPWTPNPPRSPSQMSVRDRLARLRAEAQVKQASVEVQPPQLTQVSPQQPMEGPLVPEQQMFPGAPFSQVADVVRAPGVPAMQPQYFDLPLIQPISQGAPVAPLRASMGPVPPVPATQPQYFDIPLTEPINQGASAAHFLPQQPMEGPLVPEQWMFPGAALSQSVRPGVAQSQYFDLPLTQPINHGAPAAHFLHQPPMEGPWVPEQWMFQGAPPSQGTDVVQHQLDALGYTLHGLNHPGVPVSPAVNQYHLSQAAFGLPIDEDESGEGSDTSEPCEALDLSIHGRPCPQAPEWPVQEEGGQDATEVLDLSIHGRPRPRTPEWPVQGEGGQNVTGPETRRVVVSAVVHMCQDDEFPDLQDPPDEA | – | binds | binds
FLAG-EBNA3A full-length (i) (protein, UniProt P12977 1-944) MDKDRPGPPALDDNMEEEVPSTSVVQEQVSAGDWENVLIELSDSSSEKEAEDAHLEPAQKGTKRKRVDHDAGGSAPARPMLPPQPDLPGREAILRRFPLDLRTLLQAIGAAATRIDTRAIDQFFGSQISNTEMYIMYAMAIRQAIRDRRRNPASRRDQAKWRLQTLAAGWPMGYQAYSSWMYSYTDHQTTPTFVHLQATLGCTGGRRCHVTFSAGTFKLPRCTPGDRQWLYVQSSVGNIVQSCNPRYSIFFDYMAIHRSLTKIWEEVLTPDQRVSFMEFLGFLQRTDLSYIKSFVSDALGTTSIQTPWIDDNPSTETAQAWNAGFLRGRAYGIDLLRTEGEHVEGATGETREESEDTESDGDDEDLPCIVSRGGPKVKRPPIFIRRLHRLLLMRAGKRTEQGKEVLEKARGSTYGTPRPPVPKPRPEVPQSDETATSHGSAQVPEPPTIHLAAQGMAYPLHEQHGMAPCPVAQAPPTPLPPVSPGDQLPGVFSDGRVACAPVPAPAGPIVRPWEPSLTQAAGQAFAPVRPQHMPVEPVPVPTVALERPVYPKPVRPAPPKIAMQGPGETSGIRRARERWRPAPWTPNPPRSPSQMSVRDRLARLRAEAQVKQASVEVQPPQLTQVSPQQPMEGPLVPEQQMFPGAPFSQVADVVRAPGVPAMQPQYFDLPLIQPISQGAPVAPLRASMGPVPPVPATQPQYFDIPLTEPINQGASAAHFLPQQPMEGPLVPEQWMFPGAALSQSVRPGVAQSQYFDLPLTQPINHGAPAAHFLHQPPMEGPWVPEQWMFQGAPPSQGTDVVQHQLDALGYTLHGLNHPGVPVSPAVNQYHLSQAAFGLPIDEDESGEGSDTSEPCEALDLSIHGRPCPQAPEWPVQEEGGQDATEVLDLSIHGRPRPRTPEWPVQGEGGQNVTGPETRRVVVSAVVHMCQDDEFPDLQDPPDEA | – | binds | binds
interferon regulatory factor 3 (IRF3), detected in HA-P300 immunoprecipitates of Figure 5D (protein, UniProt Q14653 1-427) MGTPKPRILPWLVSQLDLGQLEGVAWVNKSRTRFRIPWKHGLRQDAQQEDFGIFQAWAEATGAYVPGRDKPDLPTWKRNFRSALNRKEGLRLAEDRSKDPHDPHKIYEFVNSGVGDFSQPDTSPDTNGGGSTSDTQEDILDELLGNMVLAPLPDPGPPSLAVAPEPCPQPLRSPSLDNPTPFPNLGPSENPLKRLLVPGEEWEFEVTAFYRGRQVFQQTISCPEGLRLVGSEVGDRTLPGWPVTLPDPGMSLTDRGVMSYVRHVLSCLGGGLALWRAGQWLWAQRLGHCHTYWAVSEELLPNSGHGPDGEVPKDKEGGVFDLGPFIVDLITFTEGSGRSPRYALWFCVGESWPQDQPWTKRLVMVKVVPTCLRALVEMARVGGASSLENTVDLHISNSHPLSLTSDQYKAYLQDLVEGMDFQGPGES | – | binds | –
